In all, about 110,000 compounds were measured (“z-score”: median about -0.1, highest 2% from about 2 on). This is one part of the list.

The target of this experiment is Metabotropic glutamate receptor 8 (Rattus norvegicus) (UniProt P70579). As to the kind of experiment: mGluR8 Gi/Go-coupled signaling modulation – cell-based, rat, thallium flux, HTS, primary screen (AID 488969). The following applies: HEK293 rat mGluR8, GIRK (G protein-gated inwardly rectifying potassium channel) thallium flux, FluoZin2; at 10 µM; stronger effect = higher value; submaximal glutamate (EC20) added with thallium.
UniProt P70579, sequence (P70579 whole entry, looked up): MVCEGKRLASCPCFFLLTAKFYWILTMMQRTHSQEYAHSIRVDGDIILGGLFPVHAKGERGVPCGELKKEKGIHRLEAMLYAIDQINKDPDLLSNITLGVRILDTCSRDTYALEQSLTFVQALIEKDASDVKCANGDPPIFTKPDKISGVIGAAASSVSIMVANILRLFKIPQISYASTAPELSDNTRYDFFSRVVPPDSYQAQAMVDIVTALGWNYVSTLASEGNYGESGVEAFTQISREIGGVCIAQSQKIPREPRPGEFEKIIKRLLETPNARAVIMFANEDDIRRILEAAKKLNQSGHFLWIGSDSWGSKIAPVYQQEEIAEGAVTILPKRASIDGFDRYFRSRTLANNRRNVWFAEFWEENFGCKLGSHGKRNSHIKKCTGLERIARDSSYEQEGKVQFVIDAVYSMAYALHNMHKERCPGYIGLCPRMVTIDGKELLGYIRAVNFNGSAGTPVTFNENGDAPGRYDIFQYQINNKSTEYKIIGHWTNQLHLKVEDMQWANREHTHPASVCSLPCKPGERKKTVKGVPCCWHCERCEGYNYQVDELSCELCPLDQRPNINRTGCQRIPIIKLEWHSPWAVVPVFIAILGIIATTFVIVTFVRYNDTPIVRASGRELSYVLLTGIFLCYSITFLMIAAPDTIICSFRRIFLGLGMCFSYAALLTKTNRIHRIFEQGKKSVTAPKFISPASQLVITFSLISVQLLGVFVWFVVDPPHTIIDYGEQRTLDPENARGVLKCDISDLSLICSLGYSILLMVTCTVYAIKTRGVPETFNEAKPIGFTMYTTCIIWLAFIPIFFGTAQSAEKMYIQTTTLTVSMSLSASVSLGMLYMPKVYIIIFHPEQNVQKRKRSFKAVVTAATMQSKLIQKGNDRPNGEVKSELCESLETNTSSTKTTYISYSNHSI
The compound `CC(Cc1cccs1)NC(=O)Nc1ccc(Cl)c(Cl)c1` (stereo unspecified) displayed a z-score of -0.192.
As to `COc1cccc(/C=N/n2c(=S)n(C)c3ccccc32)c1OC`, the z-score amounted to 2.32.
The same measure for `CC(=O)Nc1cc(C(=O)N(C)Cc2ccco2)ccc1Sc1ccc(C)cc1`: -1.5.
`O=C(NCc1ccccc1)/C(=N\O)c1ccccc1` returned a z-score of 0.503.
`Cc1nnc(N2CCN(c3ccccc3)CC2)c2nn(-c3ccccc3F)c(C)c12`: the z-score was -2.33.
The same measure for `CCN(Cc1ccccc1)Cc1cc(OC)cc(OC)c1`: 1.4; for `COCCCNCCOc1ccc(C)cc1[N+](=O)[O-]`: -0.153.
To `Cc1cccc(NC(=O)CCc2ccc(S(=O)(=O)NC3CCCCC3)cc2)c1` belongs -0.429; to `CC(C)=CCC/C(C)=C/C=N/NC(=O)c1cccc([N+](=O)[O-])c1`, -1.06; to `COc1ccc(N(CC(=O)NCCC2=CCCCC2)S(C)(=O)=O)cc1`, 0.157.
The same measure for `O=S(=O)(Nc1ccccn1)c1cnc(Cl)c(Br)c1`: 0.232; for `COC(=O)C1=NN(C(=O)c2ccccc2)C(C)(O)C1` (stereo unspecified): 0.19.
In turn, `CN(C)S(=O)(=O)c1ccc(N2CCCC2)c(C(=O)NCc2cccc(C(F)(F)F)c2)c1` displayed a z-score of -0.318.
Compound `CN(C)CCCC(=O)c1ccc2c(c1)OCO2` registered a z-score of 0.68.
The same measure for `O=C(c1ccco1)N1CCN(CCCCN2C(=O)c3ccccc3C2=O)CC1`: -0.408; for `COc1ccc(Cl)cc1C(=O)N1CCN(c2ccccn2)CC1`: -0.477; for `Cc1ccc2c(c1)N(S(=O)(=O)c1ccc(F)cc1)C(C(C)(C)C)CO2` (stereo unspecified): -0.0745.
To `Cc1nc([N+](=O)[O-])c(N2CCN(Cc3ccccc3)CC2)n1Cc1ccccc1` belongs -0.497; to `Cc1ccc(N(Cc2ccc(C(=O)NCCSc3ccccn3)cc2)S(C)(=O)=O)cc1C`, -0.812; to `COC(=O)CSc1nc(C)cc(C(F)(F)F)c1C#N`, -0.121.
The compound `CN1OC(c2ccccc2)=C(CO)C1c1ccccc1` (stereo unspecified) came in with a z-score of -0.299.
The same measure for `COc1cc(C(=O)N/N=C(\C)Cc2ccccc2)cc(OC)c1OC`: 0.199; for `Cc1cccc(-n2ncc3c(N4CC(C)CC(C)C4)ncnc32)c1` (stereo unspecified): -0.189; for `O=C(CN1CCCCC1)Nc1cccc(Cl)c1Cl`: -0.108.
The same measure for `O=C(NCCc1cn2ccccc2n1)c1ccc(Br)o1`: -0.00828; for `COc1ccc(OC)c(C2CC(=O)N3CN(c4ccccc4F)CSC3=C2C#N)c1` (stereo unspecified): -0.436; for `Cc1nn(C)c(C(=O)N2CCN(C(=O)c3ccco3)CC2)c1[N+](=O)[O-]`: -0.127.
On to `CN(C)Cc1cc(CN(C)C)c(O)c(CCc2ccccc2)n1`, for which the z-score is -0.277.
To `Cn1c(SCC(=O)N2CCCCCC2)nc2c([nH]c3ccccc32)c1=O` belongs 0.0138.
To `O=C(Nc1ccc2oc(-c3cccc4ccccc34)nc2c1)c1ncn[nH]1` belongs -0.113; to `COc1ccc(C(C)=O)c2c(O)cccc12`, -0.23.

The values above are taken from PubChem BioAssay AID488969 (Vanderbilt High Throughput Screening Facility, 2010).
